# Measured values from publication PMC4336329 (PLoS ONE, 2015).
# Out of some 310,000 compounds screened, about 14,000 (4.5%) showed an effect of 50% or more. The effect is printed as a negative number. The list shows a part of the results.
# Biological target: human ether-à-go-go-related gene (hERG) potassium channel (human, UniProt Q12809)
# Assay: primary screen, population patch clamp on CHO cells stably expressing hERG
# 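Note: peak tail current of the secondary pulse compared with the same well before compound.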
# Chain of human ether-à-go-go-related gene (hERG) potassium channel (Q12809 whole entry, looked up): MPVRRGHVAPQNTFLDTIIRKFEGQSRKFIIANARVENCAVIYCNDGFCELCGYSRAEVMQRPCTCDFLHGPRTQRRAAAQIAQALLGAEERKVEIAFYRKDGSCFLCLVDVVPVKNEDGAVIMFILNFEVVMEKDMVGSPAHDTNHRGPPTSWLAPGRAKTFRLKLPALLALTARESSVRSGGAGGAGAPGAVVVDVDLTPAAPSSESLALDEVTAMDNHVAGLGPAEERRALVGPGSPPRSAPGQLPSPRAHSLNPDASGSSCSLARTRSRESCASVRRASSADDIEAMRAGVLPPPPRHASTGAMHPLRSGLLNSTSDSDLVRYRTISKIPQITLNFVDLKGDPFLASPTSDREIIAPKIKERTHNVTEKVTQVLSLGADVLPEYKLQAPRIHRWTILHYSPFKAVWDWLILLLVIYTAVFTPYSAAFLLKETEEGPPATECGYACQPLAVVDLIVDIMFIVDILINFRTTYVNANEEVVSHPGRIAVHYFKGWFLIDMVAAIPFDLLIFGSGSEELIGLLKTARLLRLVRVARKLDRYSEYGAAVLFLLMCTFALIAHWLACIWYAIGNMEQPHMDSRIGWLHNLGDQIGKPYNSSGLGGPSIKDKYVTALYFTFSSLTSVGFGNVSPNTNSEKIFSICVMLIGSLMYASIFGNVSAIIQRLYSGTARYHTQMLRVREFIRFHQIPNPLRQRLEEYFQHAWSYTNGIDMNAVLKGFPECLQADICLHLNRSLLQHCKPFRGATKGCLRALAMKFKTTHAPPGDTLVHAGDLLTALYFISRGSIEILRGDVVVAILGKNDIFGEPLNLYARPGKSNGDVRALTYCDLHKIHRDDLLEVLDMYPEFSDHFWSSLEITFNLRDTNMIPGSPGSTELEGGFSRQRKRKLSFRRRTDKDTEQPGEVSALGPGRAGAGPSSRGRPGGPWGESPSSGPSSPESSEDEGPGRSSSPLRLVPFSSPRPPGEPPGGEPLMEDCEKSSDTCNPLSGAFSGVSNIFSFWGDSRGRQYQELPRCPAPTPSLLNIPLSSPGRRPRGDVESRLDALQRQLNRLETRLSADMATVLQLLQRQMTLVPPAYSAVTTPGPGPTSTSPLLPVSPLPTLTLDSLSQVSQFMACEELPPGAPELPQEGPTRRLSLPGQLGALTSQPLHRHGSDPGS
row,SMILES,"hERG current change (%, negative = inhibition) at 10uM [%]"
1,CCCc1nnc(NC(=O)OCC)s1,24.1
2,Cn1ncc2c(NCc3cccc(C(F)(F)F)c3)c(C(=O)O)cnc21,24.3
3,C/C(=N\NC(=O)COc1ccccc1-c1ccccc1)c1ccccn1,-6.93
4,CC(=O)Oc1ccc(-c2cc3ccc(OC(C)=O)cc3oc2=O)cc1,6.12
5,COc1ccc(/C=C/C2=NNC(=O)CC2)cc1,7.41
6,CC(=O)N1CCC(C(=O)c2ccc(Cl)cc2)CC1,-0.317
7,CN1C(=O)NC(=O)C(C)(C2=CCCCC2)C1=O (stereo not drawn),18
8,COC(=O)c1ccc(NC(=O)C2CCN(C(=O)c3cc(OC)c(OC)c(OC)c3)CC2)cc1,6.73
9,CCC1Oc2ccccc2C(=O)N(CC(=O)c2ccc3c(c2)OCCO3)C1=O (stereo not drawn),0.31
10,O=C(NCC(=O)N1CCN(S(=O)(=O)c2ccccc2)CC1)c1ccc(Br)o1,-21.5
11,O=c1cc(N2CCc3ccccc3C2)[nH]c(=O)n1-c1ccc(Br)cc1,11.5
12,Cc1cc(C)c([N+](=O)[O-])cc1NC(=O)CCS(=O)(=O)c1ccccc1,-13.4
13,O=C(Nc1ccc(F)cc1)Nc1cnccn1,15.9
14,COc1ccc(O)c(/C=N/N2CCCCC2)c1,10.8
15,CCOC(=O)C1=C(COC(=O)C(CC)Oc2ccccc2)NC(=O)NC1C (stereo not drawn),-2.79
16,COc1ccccc1N1CCN(C(=O)CN(Cc2ccccc2)S(C)(=O)=O)CC1,-14.2
17,Cc1ccccc1NC(=O)C1CCCN(C(=O)NCc2ccccc2)C1 (stereo not drawn),1.82
18,Cc1cc(C)cc(N(CC(=O)O)S(=O)(=O)c2c(C)noc2C)c1,4.22
19,CCn1c(SCC(=O)Nc2cc(C)on2)nnc1-c1ccncc1,9.32

row,SMILES,"hERG current change (%, negative = inhibition) at 10uM [%]"
1,Cc1onc(-c2c(Cl)cccc2Cl)c1NC(=O)N1CCSCC1,9.61
2,Cc1ccc(/C=N/NC(=O)CN2CCN(Cc3ccccc3)CC2)o1,-11.7
3,COc1cccc2cc(C(=O)C3=C(O)C(=O)N(c4cc(C)on4)C3c3cccs3)oc12 (stereo not drawn),22.9
4,COc1ccccc1C(c1nnnn1C(C)(C)C)N1CCN(C(=O)c2ccco2)CC1 (stereo not drawn),-53.9
5,COc1ccc(-c2n[nH]c(=S)o2)c(OC)c1,25.1
6,Cc1ccc(NC(=S)N2CCCC(CO)C2)c(C)c1 (stereo not drawn),21.4
7,Cc1nc2ccccc2c(=O)n1NC(=O)c1ccc(F)cc1Cl,-4.62
8,O=C(NCc1ccc(Cl)cc1)c1ccc(Br)o1,-30.4
9,CCN1CCN(CCNC(=O)c2ccc3c(c2)NC(=O)/C(=C\c2ccc(OC)c(OC)c2)S3)CC1,-7.23
10,O=C(CO/N=C/c1ccccc1OC(F)F)N1CCc2ccccc21,17.9
11,C=CCCC(=O)Nc1nc(C)c(-c2csc(Nc3ccc(Cl)cc3Cl)n2)s1,15.4
12,COc1ccc(-c2ccc(OC(=O)NC3CCS(=O)(=O)C3)cc2)cc1 (stereo not drawn),7.68
13,CC(=O)Oc1ccc(C2(C)CC(C)(C)Oc3cc(OC(C)=O)ccc32)c(OC(C)=O)c1 (stereo not drawn),8.4
14,O=C(C1CCCN(Cc2ccncc2)C1)N1CCc2ccccc2C1.O=C(O)C(=O)O (stereo not drawn),-19.2
15,CCCC(=O)Nc1ccc(C(=O)Nc2cccc(OC)c2)cc1,-29.5
16,COc1cccc(C(c2sc3ncnn3c2O)N2CCc3ccccc3C2)c1 (stereo not drawn),-3.31
17,COc1ccc(OC)c(C2CC(=O)NC(SC)=C2C#N)c1 (stereo not drawn),5.48
18,O=C(O)CCn1c(=S)oc2ccccc21,-0.618
19,C=CCn1c(-c2ccc(OC)cc2)csc1=Nc1c(C)n(C)n(-c2ccccc2)c1=O,-26.5

row,SMILES,"hERG current change (%, negative = inhibition) at 10uM [%]"
1,CC(C)c1nc(SCC(=O)NCC2CCCO2)c2c(=O)n(C)c(=O)n(C)c2n1 (stereo not drawn),-0.765
2,O=C(/C=C/c1ccccc1)Oc1cccc2cccnc12,4.22
3,O=C(COC(=O)CC(c1ccccc1)c1ccccc1)Nc1c(F)cccc1F,3.58
4,COc1ccc(-c2csc3ncnc(N4CCN(c5ccccc5)CC4)c23)cc1,12.3
5,O=C(CCc1cccc(Cl)c1)N1CCCC(Nc2ccccc2)C1 (stereo not drawn),-22.6
6,N#Cc1c(SCC(=O)Nc2nc3ccccc3s2)sc2c(O)cc(=O)[nH]c12,20.7
7,Cc1ccc(S(=O)(=O)N2CCN(C(=O)c3cc(-c4cccs4)nn3-c3ccccc3)CC2)cc1,8.93
8,CCOC(=O)C1CCN(C(=O)c2ccccc2NS(=O)(=O)c2ccc(C)cc2)CC1,12.4
9,CCC1C(=O)n2nc(-c3ccccc3)cc2N=C1C (stereo not drawn),1.22
10,CNc1ccc2c3c(cccc13)C(=O)N(C)C2=O,7.27
11,O=C(CSc1nc2[nH]ncc2c(=O)[nH]1)Nc1cccc(Cl)c1,4.2
12,Cc1cccc(C2NC(=O)c3ccccc3O2)c1 (stereo not drawn),7.59
13,Cl.O=C(c1ccco1)N1CCN(C(c2ccccc2Cl)c2nnnn2Cc2ccco2)CC1 (stereo not drawn),-65.1
14,Cc1ccc(C(=O)N/C(=C\c2ccccc2)C(=O)NCCN2CCOCC2)cc1,-62.4
15,O=C(Nc1nc2ccc(Oc3ccccc3)cc2s1)c1cc([N+](=O)[O-])ccc1N1CCOCC1,4.29
16,O=C(c1cccnc1)N1N=C2CCCCCC2C1(O)C(F)(F)F (stereo not drawn),5.59
17,CSc1ccccc1NC(=O)CN(C)C(=O)C1CCN(C(=O)Nc2ccccc2)CC1,-11.4
18,Cc1ccc(OCc2nnc(SCc3cc(=O)[nH]c4ccccc34)o2)cc1,5.49
19,O=C1CC(c2cccc(Cl)c2)c2cc3c(cc2N1)CCC3 (stereo not drawn),12.7
